Laboratory results taken from the supplement of paper PMC12217912.
This is one part of the list. Sequences were assembled here from the parent chain. Inactive controls read about 0.05.

B1: TEV protease; numbered along this chain (parent)
chain: MGESLFKGPRDYNPISSSICHLTNESDGHTTSLYGIGFGPFIITNKHLFRRNNGTLVVQSLHGVFKVKDTTTLQQHLVDGRDMIIIRMPKDFPPFPQKLKFREPQREERICLVTTNFQTKSMSSMVSDTSCTFPSGDGIFWKHWIQTKDGQCGSPLVSTRDGFIVGIHSASNFTNTNNYFTSVPKNFMELLTNQEAQQWVSGWRLNADSVLWGGHKVFMVKPEEPFQPVKEATQL

Variants of: B1
Assay: raw area under fraction-flipped curve 0-4 h after induction (AUC4h, not background-subtracted), DNA-recorder readout of cleavage of the substrate (dimensionless); higher = more cleavage of the substrate by the protease variant
Details: temperature: 34 °C; time window: 0-4 h after rhamnose induction
Procedure: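 In vivo DNA recorder in E. coli TOP10(DE3) ΔrhaA at 34 °C. Each TEVp single-site mutant (parent TEVp 0) is paired with a single-site variant of the 7-mer TEVs (canonical ENLYFQ|S). The substrate sits between flexible linkers in a Bxb1-sfGFP-TEVs-SsrA fusion, so cleavage stabilises Bxb1 and speeds flipping of a recombination array, read by NGS. The value is the raw area under the fraction-flipped curve over 0-4 h after rhamnose induction (AUC4h), with ≥20 reads per time point. It is not background-subtracted; inactive controls average about 0.047.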
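Further: Bxb1 expression induced with 0.2% (w/v) L-rhamnose at OD600 near 0.5, cultures sampled hourly, flipped fraction per protease–substrate barcode pair counted by paired-end Illumina sequencing.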

| Variant | area with substrate ENLAFQS | area with substrate ENLDFQS | area with substrate ENLFFQS | area with substrate ENLHFQS | area with substrate ENLIFQS | area with substrate ENLKFQS | area with substrate ENLLFQS | area with substrate ENLNFQS | area with substrate ENLQFQS | area with substrate ENLRFQS | area with substrate ENLSFQS | area with substrate ENLWFQS | area with substrate ENLCFQS | area with substrate ENLEFQS | area with substrate ENLMFQS | area with substrate ENLPFQS | area with substrate ENLTFQS | area with substrate ENLVFQS | area with substrate ENLGFQS |
| --- | --- | --- | --- | --- | --- | --- | --- | --- | --- | --- | --- | --- | --- | --- | --- | --- | --- | --- | --- |
| R204Y | 0.0517 | 0.061 | 0.114 | 0.0793 | 0.0787 | 0.0805 | 0.0654 | 0.0672 | 0.0593 | 0.0888 | 0.063 | 0.0932 |  |  |  |  |  |  |  |
| N206D | 0.06 | 0.0641 | 0.0926 | 0.0699 |  | 0.0902 | 0.0786 | 0.0655 | 0.0684 | 0.0798 | 0.0759 |  | 0.0708 | 0.0571 | 0.0797 | 0.0843 | 0.0445 | 0.0988 |  |
| N206Q | 0.063 | 0.0708 | 0.0732 | 0.0664 | 0.0751 |  | 0.0546 | 0.0247 |  |  |  |  | 0.0733 | 0.0709 |  |  |  | 0.0758 |  |
| V220F | 0.0669 | 0.0541 | 0.0823 | 0.0625 | 0.0855 |  | 0.0704 | 0.067 | 0.0698 | 0.076 |  |  | 0.0738 | 0.0623 |  | 0.0573 |  | 0.0769 | 0.0612 |
| V220K | 0.0544 | 0.0713 | 0.0776 | 0.0676 |  | 0.0475 | 0.0708 | 0.0569 | 0.0693 | 0.0881 | 0.0569 | 0.0714 | 0.0822 |  | 0.0732 | 0.0446 |  |  |  |
| V220H | 0.0655 | 0.066 | 0.0829 | 0.068 | 0.099 | 0.0793 | 0.0871 | 0.0565 | 0.0887 |  |  |  | 0.0716 | 0.0582 | 0.0717 | 0.068 |  | 0.116 | 0.067 |
| T23F |  | 0.0682 | 0.0955 | 0.0711 |  | 0.073 | 0.0622 | 0.0629 | 0.0505 | 0.0894 | 0.0536 | 0.085 | 0.0721 | 0.0613 | 0.0626 | 0.0722 | 0.0606 | 0.0802 |  |
| R51Q |  | 0.0731 | 0.0902 | 0.0775 | 0.0484 | 0.0885 |  | 0.0741 | 0.0808 | 0.0683 | 0.0621 | 0.0666 | 0.0644 | 0.0656 |  | 0.0533 |  | 0.0464 |  |
| K216Y | 0.0589 | 0.0535 | 0.0654 | 0.0737 |  | 0.0679 | 0.0526 | 0.0653 | 0.0578 |  |  |  | 0.0553 | 0.0685 | 0.068 | 0.0572 |  | 0.114 | 0.0662 |
| I85Q |  |  | 0.0409 |  | 0.0479 | 0.058 |  | 0.0598 |  | 0.0767 | 0.0412 |  | 0.0395 | 0.0574 | 0.0658 | 0.0545 |  | 0.0643 |  |
| F6L |  | 0.0694 | 0.043 | 0.0747 |  |  |  | 0.0501 | 0.0679 |  | 0.0641 |  | 0.0654 | 0.0747 |  |  |  |  | 0.0571 |
| T233V | 0.0676 | 0.0692 |  |  |  |  |  |  |  |  | 0.0616 | 0.068 |  | 0.0599 |  | 0.0482 |  |  |  |
| T233F | 0.0762 | 0.0609 | 0.0769 | 0.08 | 0.0852 | 0.0802 | 0.0929 | 0.0788 | 0.0598 |  | 0.0644 | 0.0646 |  | 0.0626 | 0.0572 | 0.0591 |  |  |  |
| S201M | 0.0786 | 0.0663 | 0.0691 | 0.0741 | 0.0831 | 0.061 | 0.0303 | 0.0173 |  | 0.0924 | 0.0587 | 0.089 | 0.0823 |  | 0.0654 |  |  |  |  |
| E231Y | 0.0454 |  | 0.0727 | 0.0759 |  |  | 0.0623 | 0.056 |  | 0.0722 |  |  |  | 0.0618 | 0.0682 |  |  |  |  |
| F41M |  | 0.0651 | 0.104 | 0.0662 | 0.0853 | 0.0826 | 0.0693 | 0.0613 | 0.061 | 0.067 |  | 0.0806 | 0.0737 |  |  | 0.0541 |  |  |  |
| L56N |  | 0.061 | 0.0409 | 0.0646 |  | 0.0548 |  | 0.0442 |  | 0.0551 | 0.0681 |  | 0.0422 | 0.0433 |  | 0.0643 |  |  | 0.0259 |
| I86M |  | 0.0539 | 0.0859 |  | 0.075 | 0.0703 | 0.0594 | 0.0551 | 0.0784 | 0.0336 | 0.0587 |  | 0.0705 |  | 0.0796 |  |  |  |  |
| I86P |  | 0.0387 | 0.0248 | 0.0465 |  | 0.0516 | 0.0257 | 0.0342 |  | 0.019 | 0.0383 |  | 0.0211 |  |  | 0.0443 |  |  |  |
| D82C |  |  | 0.0608 | 0.0594 | 0.0536 |  |  | 0.0632 |  |  | 0.0691 | 0.0613 | 0.0511 | 0.089 |  | 0.0589 |  | 0.0496 | 0.0866 |
| D79R |  | 0.0613 | 0.0712 | 0.0551 | 0.0693 | 0.0906 | 0.081 | 0.0749 | 0.0634 | 0.0775 | 0.0738 | 0.0561 | 0.0566 | 0.0616 | 0.0728 |  |  | 0.109 | 0.0741 |
| W212I | 0.075 | 0.0608 | 0.11 |  |  | 0.087 |  | 0.0554 | 0.0914 | 0.098 | 0.0614 | 0.109 | 0.0639 | 0.0575 |  | 0.0653 |  |  | 0.0811 |
| W212T | 0.0575 | 0.0624 | 0.066 | 0.0657 | 0.0517 | 0.0707 | 0.0535 | 0.0481 | 0.06 | 0.0764 | 0.0599 | 0.0648 | 0.07 | 0.057 |  |  | 0.0619 |  |  |
| W212Y | 0.0546 | 0.0621 | 0.0896 | 0.081 | 0.104 | 0.0863 |  | 0.078 |  |  | 0.0563 |  |  |  |  | 0.0498 | 0.0828 |  |  |
| F65C |  | 0.0602 | 0.0733 | 0.0741 | 0.103 | 0.0692 | 0.0727 | 0.0901 | 0.0632 |  | 0.0901 | 0.0743 | 0.0394 | 0.145 | 0.0938 | 0.0709 |  |  | 0.0636 |
| M83N |  | 0.0585 | 0.0583 | 0.0484 | 0.0473 | 0.0381 |  |  | 0.0528 | 0.0346 | 0.0427 | 0.058 | 0.0522 |  | 0.0556 | 0.0477 |  | 0.0561 | 0.0556 |
| G2V |  |  | 0.0946 | 0.0921 | 0.0897 |  |  |  |  |  | 0.0644 |  | 0.106 | 0.0814 |  | 0.0596 |  |  |  |
| G2W |  |  | 0.102 |  | 0.0912 | 0.105 | 0.0928 |  | 0.116 |  |  |  | 0.0691 | 0.0548 |  |  |  | 0.111 |  |
